The values below come from PubChem BioAssay AID463173 (ICCB-Longwood Screening Facility, Harvard Medical School, 2010).

SMILES strings stand for the structures. The campaign covered roughly 52,000 compounds. About 1,700 (3.3%) were called active. Rule as the data show it: active = survival mostly below about 52% (no sharp cut-off); inactive = mostly above about 56%. The list shows a part of the results.

The assay deals with Wild type. The experiment in a line: S. aureus survival, RN4220 and DeltatarO strains – OD600, teichoic acid synthesis inhibitors, primary screen (AID 463173). To be noted: S. aureus RN4220 wild type/DeltatarO growth, OD600, 18 h, active compounds read low, screened at 18.75 µg/mL (by protocol).
In the case of `Cc1ccc2oc(C(=O)N(Cc3ccccc3F)C3CCS(=O)(=O)C3)c(C)c2c1` (stereo not given), the survival is inactive: 88%. On to `COc1cccc(NC(=O)CC2C(=O)OCCN2Cc2ccccc2)c1` (stereo not given), for which the survival is inactive: 161%. As for `COc1ccc(C2C(C(N)=O)=C(C)Nc3nc(-c4ccccc4Cl)nn32)cc1` (stereo not given), the figure is inactive: 82%; as for `Cc1ccc(-c2nn(CC(=O)NC3CCCCC3)c3c2cnc2ccc(F)cc23)cc1C`, active: -3%; as for `CCOc1cccc2cc(-c3nnc(Nc4ccc(F)c(Cl)c4)s3)c(=O)oc12`, inactive: 68%. As to `Cn1c(=O)[nH]c(=O)c2c1nc1n(CCO)c(-c3ccccc3)cn21`, the survival was inactive: 76%. In the case of `CCCCOc1ccc(-c2cc3c(=O)n(CC(=O)Nc4ccc(Cl)cc4Cl)ccn3n2)cc1` it was inactive: 137%.

Consider `O=C(CSc1nc2c(cnn2-c2ccc(F)cc2)c(=O)[nH]1)Nc1ccc(Br)cc1`, for which the survival is inactive: 82%. For `CC(C)C(=O)OC1=CN(Cc2ccccc2)S(=O)(=O)c2ccccc21`, the survival was inactive: 79%. Turning to `Cc1ccc2nc(C(=O)O)c(C(=O)O)nc2c1`, the survival was inactive: 108%. In the case of `COc1ccccc1CNC(=O)c1ccc2c(c1)sc1nc(-c3ccc(F)cc3)cn12` it was inactive: 71%. As for `COc1cccc(CNC(=O)c2cc(=O)[nH]c3ccc(S(=O)(=O)N4CCCCC4)cc23)c1`, the figure is inactive: 85%. As for `Cc1ccc(Cl)cc1NC(=O)CN(C)S(=O)(=O)c1ccc2c(c1)n(C)c(=O)c(=O)n2C`, the figure is inactive: 88%; as for `Cc1cccc(C)c1Nc1c(-c2ccc(Cl)s2)nc2ncccn12`, inactive: 26%. As for `COc1ccc(CCNC(=O)c2cc(-c3ccccc3)nc3ccccc23)cc1OC`, the survival is inactive: 77%. Take `CCn1cc(C(=O)OCC(=O)Nc2cc(C)cc(C)c2)c(=O)c2ccc(C)nc21`: the survival was inactive: 66%.

On to `COC(=O)c1scc(-c2ccc(C)cc2)c1S(=O)(=O)Nc1cccc(C(F)(F)F)c1`, for which the survival was inactive: 124%. As for `Cc1nn(CCCC(=O)NCc2ccccc2)c(=O)c2nn(-c3ccccc3)c(C)c12`, the figure is inactive: 22%; as for `COc1cc(CN2CCC(N)CC2)cc(OC)c1OC`, inactive: 94%. In the case of `COC(=O)c1sc2cccc(F)c2c1S(=O)(=O)Nc1cc(OC)cc(OC)c1`, the survival was active: 0%.

`O=C(CSc1nc2ccccc2c(=O)n1CCC(=O)NC1CCCCC1)Nc1ccccc1Cl`: the survival was inactive: 81%. `CCc1nnc2c(NCc3ccccc3OC)nc3ccccc3n12`: the survival was inactive: 121%.

Regarding `O=C(CSc1cn(CC(=O)N2CCCCCC2)c2ccccc12)Nc1ccccc1F`, the survival is inactive: 96%. For `CC(C)c1nnc(N2C(=O)c3oc4ccccc4c(=O)c3C2c2cccc(O)c2)s1` (stereo not given), the survival is inactive: 75%. As to `CCOc1ccc(CC(=O)Nc2nnc3n2CCS3)cc1`, the survival is inactive: 70%.

Consider `CCC(=O)N1CCc2cc(S(=O)(=O)NCCC(=O)Nc3ccc(OC)c(Cl)c3)ccc21`, for which the survival was inactive: 92%. As for `CCN(C(=O)C1CCN(S(=O)(=O)c2ccc3c(c2)CCCN3C(=O)C2CCC2)CC1)c1cccc(C)c1`, the figure is inactive: 138%; as for `Cc1ccc(NC(=O)Cn2c(=O)n(CCCCCC(=O)NCc3ccc(F)cc3)c(=O)c3sccc32)c(C)c1`, inactive: 98%; as for `Cc1c(Cl)cccc1NC(=O)c1cnc2sc(N3CCCC3)nn2c1=O`, inactive: 74%.

In the case of `COCCN1Cc2cccc(C(=O)Nc3ccc(C)cc3C)c2C1=O`, the survival was inactive: 80%. `COC(=O)CNC(=O)C(Cc1ccccc1)NS(=O)(=O)c1ccc2c(c1)c(=O)n(C)c(=O)n2C` (stereo not given): the survival was inactive: 78%. As for `Cc1c(C(=O)NCc2ccc(N(C)C)cc2)oc2c1-c1nn(Cc3cccc(Cl)c3)cc1CC2`, the figure is inactive: 91%; as for `O=C(COc1ccccc1)Nc1ccc(S(=O)(=O)N(Cc2ccccc2)c2ccccc2)cc1`, inactive: 86%; as for `COc1ccc(CCCc2n[nH]c(=S)o2)c(C)c1`, inactive: 104%. As for `Cc1cc2c(cc1S(=O)(=O)N1CCC(C)CC1)OCC(=O)N2`, the figure is inactive: 86%; as for `COc1ccc(-c2nc(-c3ccccc3)c(-c3ccccc3)[nH]2)cc1Br`, inactive: 81%. As to `Cc1ccc(-c2nnc(SCC(=O)N3CCc4ccccc43)o2)cc1`, the survival is inactive: 84%. With `Cc1cc(C)cc(NC(=O)Cn2c(=O)oc3cc(S(=O)(=O)N4CCCC4)ccc32)c1`, the survival is inactive: 158%. As to `COc1ccc(S(=O)(=O)c2cn(C)c3cc(N4CCCC4)c(F)cc3c2=O)cc1`, the survival was inactive: 69%. As for `COc1cccc(CNC(=O)c2cnc(N3CCCC3)nc2C)c1`, the figure is inactive: 73%. As for `O=S(=O)(c1ccc2ccccc2c1)n1nc(-c2ccco2)nc1NCc1cccc(Cl)c1`, the figure is inactive: 89%. Take `Cc1ccc(CNC(=O)c2ccc3c(c2)N(Cc2ccccc2F)C(=O)c2ccccc2S3(=O)=O)cc1`: the survival was inactive: 90%. In the case of `O=C(O)c1cc(C2CC2)on1` it was inactive: 117%; in that of `Cc1ccc(C(C(=O)NC2CC2)N(C(=O)Cn2nnc(-c3cccs3)n2)c2cnc3ccccc3c2)o1` (stereo not given), inactive: 121%; in that of `O=C1SCC(c2ccccc2)S1` (stereo not given), inactive: 111%. As for `CCOc1cc(CNCCSc2nnnn2-c2ccccc2)cc(Cl)c1OC`, the figure is inactive: 85%; as for `CC(C)Oc1ccc(CNS(=O)(=O)c2cnc(N)nc2)cc1`, inactive: 111%. In the case of `CN1CCN(C(CNC(=O)C(=O)Nc2ccc(F)cc2F)c2ccc3c(c2)OCO3)CC1` (stereo not given) it was inactive: 66%; in that of `CCOc1ccc(CCNC(=O)Cn2nnc(-c3ccc(OC)c(OC)c3)n2)cc1OCC`, inactive: 90%; in that of `Cc1ccc2nc(-c3ccc(NC(=O)COc4c(C)ccc(C)c4C)cc3)sc2c1`, inactive: 62%.

As to `Cc1c(C(=O)O)nnn1-c1ccccc1`, the survival was inactive: 100%. In the case of `COc1cc(NC(=O)c2nnn(CC(=O)Nc3ccccc3)c2N)cc(OC)c1` it was inactive: 80%; in that of `CCCc1nn2c(=O)cc(COC(=O)c3ccc(NC(=O)C(C)Oc4ccccc4)cc3)nc2s1` (stereo not given), inactive: 88%. For `c1ccc(C2=NN3COc4ccccc4C3C2)cc1` (stereo not given), the survival is inactive: 92%. `CCCCNc1nc(Oc2ccc(=O)n(C)n2)nc(N(C)C)n1`: the survival is inactive: 83%. In the case of `COc1ccc(S(=O)(=O)N2C3CCC2CC(NC(=O)NC2CCCCC2)C3)cc1` (stereo not given) it was inactive: 98%. As for `CSc1nc(-c2ccc(F)cc2)nc2c1Cc1c(CO)cnc(C)c1O2`, the figure is inactive: 81%; as for `O=C(NC1CCCCC1)c1ccc2c(c1)N(Cc1ccccc1)C(=O)c1ccccc1S2`, inactive: 64%. Consider `O=C(CN1C(=O)C2(SCC(=O)N2c2ccccc2)c2ccccc21)NCc1ccccc1Cl` (stereo not given), for which the survival was inactive: 97%. As for `COc1ccc(C(=O)c2cn(Cc3ccc(C)cc3)c3cc4c(cc3c2=O)OCO4)cc1`, the figure is inactive: 132%.

For the compound `COc1cc(NC(=O)CCS(=O)(=O)c2nc(-c3cccs3)cc(C(F)(F)F)n2)cc(OC)c1OC`, the survival was inactive: 78%.

Turning to `COc1ccccc1-c1noc(CSc2nc3ccc(C)cc3[nH]2)n1`, the survival is inactive: 118%.

For `O=C(CSc1cn(CC(=O)N2CCCCC2)c2ccccc12)Nc1ccccc1F`, the survival is inactive: 89%. With `Cc1ccc2c(CC(=O)Nc3ccccc3C(F)(F)F)coc2c1C`, the survival is inactive: 93%.

On to `CC(CNC(=O)C1CCN(Cc2cc3ccccc3n2Cc2ccccc2)CC1)c1ccccc1` (stereo not given), for which the survival is inactive: 60%. In the case of `Cc1c(Cl)cccc1NC(=O)CCn1c(=O)c2cccn2c2ccccc21` it was inactive: 77%; in that of `O=C(Nc1ccccc1Cl)c1cnsn1`, inactive: 111%. In the case of `CCOc1ccccc1NC(=O)CSc1nccn1-c1ccc(Cl)cc1` it was inactive: 80%; in that of `CSc1ccc(CCNC(=O)C2CCN(c3nc4ccccc4nc3C(F)(F)F)CC2)cc1`, inactive: 73%; in that of `O=C(Cn1c(=O)n(Cc2ccc3c(c2)OCO3)c(=O)c2oc3ccccc3c21)Nc1ccccc1`, inactive: 73%. With `CCc1ccc(-c2nc3ccc(Br)cc3c(C(=O)O)c2C)s1`, the survival was inactive: 55%. Consider `Cc1ccccc1CNC(=O)C1CCN(c2nnc(C)c3c(C)n(-c4ccccc4)nc23)CC1`, for which the survival is inactive: 97%. As for `COC(=O)c1ccc(NC(=O)c2c(NCc3ccc(C)o3)sc3c2CCCC3)cc1`, the figure is inactive: 77%.

With `CCn1c(C(=O)NCc2cccc(Br)c2)cc2oc3ccccc3c21`, the survival is active: 7%. On to `CN1C(=O)C2(c3ccccc31)N(c1ccccc1)C(=O)CS2(=O)=O` (stereo not given), for which the survival was inactive: 77%.

For `CCc1nnc(NC(=O)c2cc(=O)c3cc(C)c(C)cc3o2)s1`, the survival is inactive: 74%. As to `COc1cc(-c2noc(-c3cc4cc(F)ccc4oc3=O)n2)cc(OC)c1OC`, the survival was inactive: 99%. As for `CC(C)CC(C(=O)O)n1c(O)c(C2=c3ccccc3=NC2=O)sc1=S` (stereo not given), the survival was inactive: 112%. As for `Cc1cc(C)c2oc(C(=O)Nc3sc4c(c3C(=O)NCc3ccco3)CCC4)cc(=O)c2c1`, the figure is inactive: 87%; as for `CC(C(=O)O)n1ncc2ccccc2c1=O` (stereo not given), inactive: 102%; as for `Cc1ccc(NC(=O)/C=C/c2ccccc2)c(Br)c1`, inactive: 154%. In the case of `COc1ccc(-c2nc3scc(CCNS(=O)(=O)c4c(C)noc4C)n3n2)cc1` it was inactive: 73%; in that of `Cc1ccc(C)c(CN2C(=O)c3ccccc3S(=O)(=O)c3ccc(C(=O)Nc4ccccc4C(F)(F)F)cc32)c1`, inactive: 99%; in that of `CN1CCN(C(=O)C(=O)Nc2c3c(nn2-c2ccc(F)cc2)CSC3)CC1`, inactive: 81%. As to `Cc1ccc(S(=O)(=O)NCCc2nnc3ccc(SCc4ccccc4C)nn23)cc1`, the survival was inactive: 84%.

Take `COc1ccc(N2CCN(C(=O)Cn3cnc4nc5c(cc4c3=O)CCCC5)CC2)cc1`: the survival is inactive: 78%. As for `CCOC(=O)Cc1csc(NC(=O)CSc2nnc(-c3ccc(F)cc3)o2)n1`, the figure is inactive: 107%; as for `CCOC(=O)c1cccc(NC(=O)c2cc(CN3CCCC3)on2)c1`, inactive: 75%. In the case of `COc1ccc(/C=C\c2onc(C)c2S(=O)(=O)N2CCC(C(=O)Nc3ccccc3OC)CC2)cc1` it was inactive: 116%. In the case of `C/C=N/NC(=O)c1ccccc1` it was inactive: 97%.
